Source: PubChem BioAssay AID504333 (National Center for Advancing Translational Sciences (NCATS), 2011)
Out of some 360,000 compounds screened, about 16,000 (4.4%) were called active. Inconclusive means that the source gave no clear call. Such entries were picked first, then a sample of the others. The call rests on the fitted dose curve; in most records, active means well fitted inhibition curve with a large enough effect; inconclusive means small, poorly fitted or top-dose-only effect; inactive means no such curve, though single readings can be large or run the other way. A potency beside an inconclusive call is a rough fit, not a confirmed value.

biological target: Bromodomain adjacent to zinc finger domain protein 2B (Homo sapiens) (UniProt Q9UIF8); assay: qHTS Assay for Inhibitors of BAZ2B; settings: AlphaScreen BAZ2B-H3K14Ac peptide displacement; activity change, negative = inhibition: at 114 µM (top of the series) unless noted; further: nearly all actives have a fitted effect of over 60% in size
Outline: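 BAZ2B 50 nM plus b-H3(5-23)K14Ac 50 nM, PBS pH 7.4/0.01% Tween-20, 30 min RT; compound added (max 110 uM), 30 min RT; streptavidin donor/Ni-chelate acceptor beads 10 ug/mL final, 20 min dark; AlphaScreen read.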
On the % scale 0 is the no-effect control and ±100 the full control effect; potency means the concentration at half of the fitted maximal effect; tags describe the fitted curve by direction and shape.

Sequence of UniProt Q9UIF8 (Q9UIF8 whole entry, looked up, the tested form may be a part): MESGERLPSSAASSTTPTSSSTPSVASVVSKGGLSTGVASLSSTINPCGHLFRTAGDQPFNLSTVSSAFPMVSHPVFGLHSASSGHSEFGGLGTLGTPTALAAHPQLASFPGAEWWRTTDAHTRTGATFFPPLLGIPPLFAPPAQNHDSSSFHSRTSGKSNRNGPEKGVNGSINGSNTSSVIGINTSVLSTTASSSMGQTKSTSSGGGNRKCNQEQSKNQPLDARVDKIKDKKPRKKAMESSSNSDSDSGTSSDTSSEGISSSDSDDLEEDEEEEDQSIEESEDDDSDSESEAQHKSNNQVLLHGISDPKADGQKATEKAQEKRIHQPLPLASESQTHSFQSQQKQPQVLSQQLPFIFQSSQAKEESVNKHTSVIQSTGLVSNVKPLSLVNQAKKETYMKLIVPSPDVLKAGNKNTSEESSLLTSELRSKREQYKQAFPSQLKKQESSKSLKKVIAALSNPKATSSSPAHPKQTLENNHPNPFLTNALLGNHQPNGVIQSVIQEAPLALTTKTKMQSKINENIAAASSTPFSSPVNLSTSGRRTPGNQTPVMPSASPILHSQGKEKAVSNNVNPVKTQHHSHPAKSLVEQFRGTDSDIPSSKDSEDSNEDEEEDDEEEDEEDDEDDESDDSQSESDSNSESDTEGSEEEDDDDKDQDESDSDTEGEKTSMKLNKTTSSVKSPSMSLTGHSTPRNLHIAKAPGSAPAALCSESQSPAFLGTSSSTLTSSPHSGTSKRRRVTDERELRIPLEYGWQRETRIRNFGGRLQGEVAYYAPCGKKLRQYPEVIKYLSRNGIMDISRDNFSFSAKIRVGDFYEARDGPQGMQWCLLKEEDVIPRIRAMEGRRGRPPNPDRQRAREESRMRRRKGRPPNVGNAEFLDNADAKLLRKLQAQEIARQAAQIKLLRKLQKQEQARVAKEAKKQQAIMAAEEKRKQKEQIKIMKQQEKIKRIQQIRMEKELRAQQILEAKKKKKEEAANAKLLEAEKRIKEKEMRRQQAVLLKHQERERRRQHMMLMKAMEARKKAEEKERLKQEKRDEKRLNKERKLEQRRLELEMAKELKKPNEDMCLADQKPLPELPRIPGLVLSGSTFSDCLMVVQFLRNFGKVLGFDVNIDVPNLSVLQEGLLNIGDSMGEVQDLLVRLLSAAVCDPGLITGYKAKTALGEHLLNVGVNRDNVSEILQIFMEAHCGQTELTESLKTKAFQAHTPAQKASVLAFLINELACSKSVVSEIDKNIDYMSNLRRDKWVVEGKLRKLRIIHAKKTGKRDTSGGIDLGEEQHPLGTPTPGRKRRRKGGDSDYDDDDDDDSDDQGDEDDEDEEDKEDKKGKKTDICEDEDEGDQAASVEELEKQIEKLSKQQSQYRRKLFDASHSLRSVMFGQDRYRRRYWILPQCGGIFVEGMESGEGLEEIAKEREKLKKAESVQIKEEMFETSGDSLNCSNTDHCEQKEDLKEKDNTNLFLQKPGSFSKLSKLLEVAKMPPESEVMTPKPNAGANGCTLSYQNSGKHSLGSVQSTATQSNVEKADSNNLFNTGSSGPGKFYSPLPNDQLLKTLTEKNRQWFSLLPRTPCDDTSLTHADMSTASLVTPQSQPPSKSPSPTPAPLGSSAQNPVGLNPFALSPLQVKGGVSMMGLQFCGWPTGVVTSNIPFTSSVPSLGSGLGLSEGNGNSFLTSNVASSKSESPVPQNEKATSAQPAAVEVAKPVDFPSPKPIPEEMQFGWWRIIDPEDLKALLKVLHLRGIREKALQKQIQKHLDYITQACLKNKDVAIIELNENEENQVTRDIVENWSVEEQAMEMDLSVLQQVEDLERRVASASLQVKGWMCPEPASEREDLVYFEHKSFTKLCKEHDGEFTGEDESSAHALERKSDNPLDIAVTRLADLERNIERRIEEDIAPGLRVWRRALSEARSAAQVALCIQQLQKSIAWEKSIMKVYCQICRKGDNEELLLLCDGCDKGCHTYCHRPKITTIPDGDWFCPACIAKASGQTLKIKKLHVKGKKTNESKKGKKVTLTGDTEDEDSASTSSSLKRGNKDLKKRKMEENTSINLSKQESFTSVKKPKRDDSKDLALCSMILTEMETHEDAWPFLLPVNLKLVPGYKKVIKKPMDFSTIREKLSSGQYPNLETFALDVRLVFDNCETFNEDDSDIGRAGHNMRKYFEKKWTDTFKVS

Structure (SMILES) | Potency | activity change, negative = inhibition
O=C(NCc1ccc2c(c1)OCO2)C1CCN(Cc2cnn(-c3ccccc3)c2-n2cccc2)CC1 | inconclusive: 50.1 µM [inhibitor, partial curve] | 
O=C(CN1C(=O)c2ccccc2C1=O)NCc1ccc(F)cc1 | inconclusive: 89.1 µM [inhibitor, single point] | 
CC(C)(C)SCCNC(=O)CSCc1ccc([N+](=O)[O-])cc1 |  | inactive: 0.463%
CCOc1ccc(OCC)c(NS(=O)(=O)c2c(C(=O)N3CCCCCC3)c(C)n(C)c2C)c1 | inconclusive: 89.1 µM [inhibitor, single point] | 
O=C(O)C1CCCCC1C(=O)Nc1cccc(Br)c1 (stereo not drawn) | inconclusive: 35.5 µM [inhibitor, full curve] | 
O=C(CSc1nnc(-c2ccccc2)c(-c2ccccc2)n1)NC1CCCC1 | inconclusive: 70.8 µM [inhibitor, single point] | 
CCOc1ccc(C(=O)c2cn(CC(=O)Nc3ccc(F)cc3)c3cc4c(cc3c2=O)OCCO4)cc1 | inconclusive: 89.1 µM [inhibitor, single point] | 
Nc1nonc1-n1nnc(C(=O)N/N=C/c2ccc3c(c2)OCO3)c1CSc1ccccc1 |  | inactive: -6.2% [at 57.1 µM]
CCOC(=O)c1ccccc1NC(=O)COC(=O)C1=COCCO1 | inconclusive: 89.1 µM [inhibitor, single point] | 
COC(=O)/C=C1\SC(=NC(=O)c2cccc([N+](=O)[O-])c2)NC1=O |  | inactive: -25.5%
c1cncc(-c2nc(NCc3ccco3)c3ccccc3n2)c1 | inconclusive: 89.1 µM [inhibitor, single point] | 
Cc1ccccc1NC(=O)CN1C(=O)N/C(=C\c2cccn2-c2cccc(C(=O)O)c2)C1=O | active: 20 µM | 
N#Cc1c(-n2cccc2)cccc1-n1cccc1 | active: 50.1 µM | 
COc1ccc2oc(C(=O)c3ccccc3)c(NC(=O)CN3CCN(C)CC3)c2c1 | inconclusive: 79.4 µM [inhibitor, single point] | 
Cc1cc(C)c(C)c(S(=O)(=O)N2CCN(CC(=O)c3c(N)n(Cc4ccccc4)c(=O)n(C)c3=O)CC2)c1C | inconclusive: 56.2 µM [inhibitor, partial curve] | 
CN(C)c1ccc(N2C(=O)CC(Sc3ccccc3C(=O)O)C2=O)cc1 (stereo not drawn) | inconclusive: 89.1 µM [inhibitor, single point] | 
Cn1c(=O)c2c(-c3ccc(Br)cc3)n(CCc3ccccc3)cc2n(C)c1=O | inconclusive: 28.2 µM [inhibitor, full curve, poor fit] | 
COc1ccc(C(=O)COC(=O)[C@H](C)Nc2ccc(C(F)(F)F)cc2[N+](=O)[O-])c(OC)c1 | active: 50.1 µM | 
